Hit rate of the full screen: of about 150,000 compounds, about 540 (0.36%) showed an effect of 50% or more. The list shows a part of the results.

This experiment has as its system Plasmodium falciparum. The experiment can be described thus: Primary screen in NF54 nanoGlo assay, in single point, at 2uM, 72h; a lower Z score goes with more inhibition. The settings on record: timepoint 72 hour. In kind it is functional, Erythrocyte.
For the compound `COc1ccc(C(O)(C(=O)NCCCCOc2ccccc2)c2ccc(OC)cc2)cc1`, the “% Inhibition” value was -1% and the Z score is given as 0.1.

For `CNc1ccnc(N(C)C[C@H]2CCCN(CCOC)C2)n1`, the “% Inhibition” value was determined as 0% and the Z score is 0.05.

For `CC(C)CO[C@@H](C)C(=O)NOc1ccc(F)cc1`, the “% Inhibition” value is recorded as -12% and the Z score came out at 1.56.

For the compound `Cc1ccc(C(=O)N2CCN=C2N2CCCC2)cc1`, the “% Inhibition” value is -12% and the Z score amounted to 1.15.

Consider `CCN1CCCn2nc([C@H]3CCCN(Cc4ccoc4)C3)cc2C1=O`, for which the “% Inhibition” value is given as -6% and the Z score was determined as 1.04.

In the case of `COc1ccc(S(=O)(=O)N(c2ccc3[nH]ccc3c2)[C@@H](C)CC(C)C)cc1OC`, the “% Inhibition” value is reported as -1% and the Z score was determined as 0.22.

For `O=C(C1CCC1)N1CCc2cc(-c3ccncc3)ccc21`, the “% Inhibition” value is 3% and the Z score is -0.48.

In the case of `CCCc1nc(C(=O)N2C[C@H]3CCC[C@@]3(CO)C2)cs1`, the “% Inhibition” value is -2% and the Z score amounted to 0.32.

For the compound `CNc1nc(C(=O)N[C@H]2CCN(Cc3csc(C)n3)C[C@@H]2O)cs1`, the “% Inhibition” value was -10% and the Z score was 1.61.

Turning to `Cn1ncc(C2CC2)c1C(=O)Nc1cccc2[nH]ccc12`, the “% Inhibition” value is given as -5% and the Z score is given as 0.8.

In the case of `Cn1ncc2c(=O)n(CC(=O)Nc3cccc(F)c3)nnc21`, the “% Inhibition” value amounted to 0% and the Z score was 0.06.

As to `Cn1cc(S(=O)(=O)NC[C@@](C)(O)Cc2ccsc2)cn1`, the “% Inhibition” value is given as -7% and the Z score was 0.81.

Consider `Cc1nc(NCc2cc3n(n2)CCCN(CC(C)C)C3)c2cccnc2n1`, for which the “% Inhibition” value is reported as -3% and the Z score amounted to 0.33.

In the case of `CC(C)n1cc(S(=O)(=O)Nc2ccc(F)c(F)c2)c2cccnc21`, the “% Inhibition” value stood at 7% and the Z score is -1.21.

As to `COCc1ccc(CNc2nnc3ccccn23)o1`, the “% Inhibition” value is on record as -12% and the Z score stood at 1.57.

With `COc1cccc2nc(C[C@H]3CN(C(C)C)CC[C@H]3CC(=O)O)[nH]c12`, the “% Inhibition” value is listed as -12% and the Z score is 2.23.

As for `CC(C)c1cc(=O)n(Cc2cccc(F)c2)c2cc(OCC(=O)Nc3ccc(F)cc3)ccc12`, the “% Inhibition” value is given as -6% and the Z score is on record as 1.16.

For `CC(C)Oc1cccc([C@H]2CC(O)=Nc3nc(N4CCOCC4)sc32)c1`, the “% Inhibition” value was -7% and the Z score is given as 0.88.

In the case of `CCCN(Cc1cccc(Cl)c1)C(=O)CC1=CCNCC1`, the “% Inhibition” value turned out to be 0% and the Z score was -0.08.

Regarding `CCOc1ccc(OCC(=O)N2CCc3nc(NS(C)(=O)=O)sc3C2)cc1`, the “% Inhibition” value was 9% and the Z score is -1.08.

Regarding `CC(C)c1ccc(C(=O)NC2CCCCC2C(N)=O)nc1` (stereo not drawn), the “% Inhibition” value is -3% and the Z score is on record as 0.47.

Take `CC(C)(C)c1ccc(C(=O)Nc2nc3nc(-c4ccccc4)cc(O)n3n2)cc1`: the “% Inhibition” value came to 29% and the Z score is -3.31.

Turning to `CCOc1cc(CN[C@@H](C)c2ccccc2)c(Br)cc1OCC(=O)NCc1ccccc1`, the “% Inhibition” value is -14% and the Z score is given as 1.92.

For `Cc1cc(Br)cc(C)c1NC(=O)COc1ccc2c(c1)CCCC2`, the “% Inhibition” value was -7% and the Z score is given as 0.99.

Consider `Cc1c(C(=O)N2CCC(CNC(=O)Cn3cccn3)CC2)ccn1C`, for which the “% Inhibition” value is -21% and the Z score worked out at 1.99.

On to `C[C@H]1CCCN(c2ncc(Br)cn2)C1`, for which the “% Inhibition” value is listed as -7% and the Z score was found to be 0.99.

For `CN1C[C@@H](CO)[C@H](NC(=O)c2ccccc2)C1`, the “% Inhibition” value is on record as -12% and the Z score is on record as 1.62.

With `Cc1cc(C)cc(OCC(=O)N2CCC(c3nc4ccccc4o3)CC2)c1`, the “% Inhibition” value is on record as -23% and the Z score is on record as 2.05.

On to `COc1cc(NC(=O)C2CCN(c3c(C(=O)N4CCCC4)cnc4snc(C)c34)CC2)cc(OC)c1OC`, for which the “% Inhibition” value is 5% and the Z score was -0.78.

Turning to `Cn1cncc1[C@H]1C[C@@H]1C(=O)N1CCC(c2ccc3[nH]ccc3c2)CC1`, the “% Inhibition” value was determined as 0% and the Z score was determined as 0.06.

On to `COC1(OC)CC2(CN(C(=O)[C@H]3CCCO3)C2c2ccccc2)C1` (stereo partly drawn), for which the “% Inhibition” value is recorded as -17% and the Z score is on record as 2.27.

Regarding `CC(C)[C@H]1CN(c2ccncc2F)C[C@@H]1C(=O)O`, the “% Inhibition” value is recorded as -15% and the Z score was 1.52.

Take `CCCC[C@H](N)C(=O)N1CCOC2(CCC2)C1`: the “% Inhibition” value was -17% and the Z score worked out at 1.94.

Take `CCN(C[C@H](C)OC)C(=O)c1nn(C)c2ccccc2c1=O`: the “% Inhibition” value is recorded as 13% and the Z score is given as -1.69.

As for `CC(=O)c1ccc(NC(=O)N2CCC[C@H](C(=O)c3ccc4c(c3)OCO4)C2)cc1`, the “% Inhibition” value is given as -12% and the Z score is 1.56.

Take `CCS(=O)(=O)N1CCC(C(=O)OCc2ccc(OCc3nccn3C)cc2)CC1`: the “% Inhibition” value was 3% and the Z score is recorded as -0.23.

On to `Cn1cc(NC(=O)N2CCN3C(=O)CC[C@H]3C2)cn1`, for which the “% Inhibition” value was -12% and the Z score came to 2.3.

For the compound `COc1ccc(C(OCC2OC(n3cnc4c(NC(=O)c5ccccc5)cnnc43)CC2O)(c2ccccc2)c2ccc(OC)cc2)cc1` (stereo not drawn), the “% Inhibition” value worked out at 0% and the Z score was -0.06.

Turning to `COc1ccc2c(c1)CN(C(=O)Nc1nnn(C(C)C)n1)C2`, the “% Inhibition” value is given as -7% and the Z score was 1.31.

With `COCc1ncc(C)n1CCNC(=O)c1ccsc1`, the “% Inhibition” value is -9% and the Z score worked out at 1.01.

`COc1ccc([C@H]2CC(=O)Nc3nc(N4CCOCC4)sc32)cc1`: the “% Inhibition” value is recorded as 29% and the Z score is listed as -3.24.

Take `CC(=O)N1CC[C@H](COC(=O)c2ccc(C)cc2Cl)C1`: the “% Inhibition” value is listed as -11% and the Z score worked out at 1.52.

Turning to `C[C@@H](CC1CCCC1)C(=O)NC1CCN(CCS(C)(=O)=O)CC1`, the “% Inhibition” value is on record as -4% and the Z score is listed as 0.5.

`O=C(c1csc(-c2cccs2)n1)N1CCc2sccc2[C@H]1c1ccccc1`: the “% Inhibition” value was -7% and the Z score amounted to 1.41.

Take `Cc1ccsc1CN1CC(Oc2ccc(-c3noc(-c4cccnc4)n3)cc2)C1`: the “% Inhibition” value is -2% and the Z score worked out at 0.25.

Take `O=C1OCCN1Cc1cc(F)cc(C(F)(F)F)c1`: the “% Inhibition” value is on record as -2% and the Z score came out at 0.41.

`CC(OCC(F)(F)F)C(=O)NC1C2CCCCC21` (stereo not drawn): the “% Inhibition” value is -12% and the Z score was 1.8.

Take `Cn1cc(C(=O)NCCc2ccc(-c3ccsc3)s2)nn1`: the “% Inhibition” value is 3% and the Z score is on record as -0.58.

Consider `Cn1nc(C(=O)N2CCc3nc(NC(=O)c4ccco4)sc3C2)ccc1=O`, for which the “% Inhibition” value was -11% and the Z score amounted to 1.79.

Take `O=C(NC1CC12CCCC2)NC1CC12CC2` (stereo not drawn): the “% Inhibition” value is reported as -8% and the Z score is reported as 1.66.

On to `C#Cc1cccc(NC(=O)CN(C)c2nc3ccccn3c2C#N)c1`, for which the “% Inhibition” value was -13% and the Z score was determined as 2.53.

In the case of `CCCCc1nc(-c2nccn2[C@@H](C)c2nccs2)c[nH]1`, the “% Inhibition” value is listed as 0% and the Z score is on record as -0.07.

For `CC(Oc1cccnc1)C(=O)N(C)C[C@@H]1CCCO1` (stereo partly drawn), the “% Inhibition” value was -10% and the Z score was 1.57.

For `N#CC1(C#N)C(C(=O)c2ccc(Cl)cc2)C1(C#N)C#N`, the “% Inhibition” value is on record as -26% and the Z score is recorded as 3.05.
